In publication PMC4336329 (PLoS ONE, 2015):
Out of some 310,000 compounds screened, about 14,000 (4.5%) showed an effect of 50% or more. Effects have a minus sign here. The list shows a part of the results.

target: human ether-à-go-go-related gene (hERG) potassium channel (human, UniProt Q12809); assay: primary screen, population patch clamp on CHO cells stably expressing hERG
Experimental: Briefly, Chinese hamster ovary (CHO) cells stably expressing the hERG channel were dislodged from tissue culture flasks and dispensed into PPC plates. […] During the recording, background leak currents were estimated by a 100 ms step to -80 mV from an initial holding potential of -70 mV and subtracted from the subsequent current measurement. The campaign was conducted in two phases using slight differences in recording protocol. In the first phase, the initial voltage pulse used a 100 ms step to -30 mV from a holding potential of -70 mV, a 2 s conditioning step to +25 mV, and a 2 s test step to -30 mV. During the second phase of the screen, the potential during the conditioning step was raised to +45 mV. In both phases of the campaign, a secondary voltage pulse was applied using the same parameters as the second phase initial pulse. The initial and secondary pulses were applied in the absence of compound, and upon application of 1 μM and 10 μM test concentrations. […]
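Note: peak tail current of the secondary pulse compared with the same well before compound.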

human ether-à-go-go-related gene (hERG) potassium channel, sequence (Q12809 whole entry, looked up): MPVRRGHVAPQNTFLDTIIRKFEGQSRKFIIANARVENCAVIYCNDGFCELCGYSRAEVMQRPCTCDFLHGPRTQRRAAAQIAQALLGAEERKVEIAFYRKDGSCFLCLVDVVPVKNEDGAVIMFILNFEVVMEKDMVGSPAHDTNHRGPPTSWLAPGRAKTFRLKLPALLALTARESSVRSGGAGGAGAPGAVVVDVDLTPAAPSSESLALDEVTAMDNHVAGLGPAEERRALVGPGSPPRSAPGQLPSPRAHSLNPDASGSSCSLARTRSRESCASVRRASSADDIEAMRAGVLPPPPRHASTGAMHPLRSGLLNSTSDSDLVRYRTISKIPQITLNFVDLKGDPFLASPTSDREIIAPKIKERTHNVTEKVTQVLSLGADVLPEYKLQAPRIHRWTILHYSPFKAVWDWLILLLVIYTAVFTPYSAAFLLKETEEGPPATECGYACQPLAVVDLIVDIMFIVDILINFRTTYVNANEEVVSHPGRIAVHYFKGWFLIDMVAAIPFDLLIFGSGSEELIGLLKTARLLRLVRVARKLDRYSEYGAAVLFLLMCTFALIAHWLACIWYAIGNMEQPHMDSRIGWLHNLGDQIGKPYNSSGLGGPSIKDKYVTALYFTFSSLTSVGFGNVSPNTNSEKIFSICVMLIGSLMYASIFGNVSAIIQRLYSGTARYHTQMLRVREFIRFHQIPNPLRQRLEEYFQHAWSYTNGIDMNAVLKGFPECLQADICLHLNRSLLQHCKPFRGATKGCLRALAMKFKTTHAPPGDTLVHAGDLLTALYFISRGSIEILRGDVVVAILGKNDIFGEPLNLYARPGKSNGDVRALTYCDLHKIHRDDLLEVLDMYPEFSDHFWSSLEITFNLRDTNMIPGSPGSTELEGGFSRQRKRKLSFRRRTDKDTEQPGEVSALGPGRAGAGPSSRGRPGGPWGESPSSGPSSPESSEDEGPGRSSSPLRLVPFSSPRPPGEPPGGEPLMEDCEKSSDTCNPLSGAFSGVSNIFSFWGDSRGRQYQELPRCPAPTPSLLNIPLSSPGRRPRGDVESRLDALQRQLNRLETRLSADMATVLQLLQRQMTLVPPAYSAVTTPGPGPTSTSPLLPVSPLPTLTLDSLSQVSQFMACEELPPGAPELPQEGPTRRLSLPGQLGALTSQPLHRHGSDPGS

SMILES	hERG current change (%, negative = inhibition) at 10uM
CC(C)c1ccc(/C=C2\SC(=O)N(CC(=O)NCCCn3ccnc3)C2=O)cc1	-76.9%
Cc1nn(-c2ccccc2)c(OC(=O)c2cccs2)c1S(=O)(=O)c1ccccc1	-2.4%
COc1ccc2c(c1)C1(Nc3ccccc3-c3nc4ccccc4n31)C(=O)N2C (centres unmarked)	18.9%
Cc1ccc(Cn2cc(SCC(N)=O)c3ccccc32)cc1	2.93%
Cc1noc(NS(=O)(=O)c2ccc(NC(=O)C(Cl)(Cl)Cl)cc2)c1C	14%
C=CCN=C1S/C(=C\c2ccc(Cl)cc2)C(=O)N1CC=C	-1.83%
S=C(Nc1ccc(Br)cc1)N1CCN(c2ccccn2)CC1	16%
COc1ccccc1CNC(=O)C1CCN(S(=O)(=O)N2CCCCC2)CC1	-10.1%
COc1cc(/C=C2/SC(=S)NC2=O)ccc1OS(=O)(=O)c1ccc(C)cc1	39.8%
Cn1c(=O)[nH]c(=O)c2c1nc(N1CCN(Cc3ccccc3)CC1)n2CCCc1ccccc1	-31.9%
CCCCN1C2CCCC1CC(NC(=O)c1ccc(OC)c(OC)c1)C2 (centres unmarked)	-47.6%
O=C(O)CC/C(=N/NC(=O)c1cn(-c2ccccc2)nc1-c1ccccc1)C(=O)O	16.5%
Cc1ccc(C2=NN(C(=O)C3CCCO3)C(c3ccco3)C2)cc1 (centres unmarked)	-5.22%
COc1ccc(Cl)cc1NC(=O)N1CCN(CCc2ccccc2)CC1	-10.5%
COc1cccc2cc(C(=O)CS(=O)(=O)c3ccc(C)cc3)c(=O)oc12	-19.4%
CC(=O)Nc1ccc(Nc2nc(-c3c(C)nc4ccccn34)cs2)cc1	18.4%
CCCNC(=O)Cn1cnc2sc(C(=O)Nc3cc(OC)c(OC)c(OC)c3)c(C)c2c1=O	1.34%
Cc1cccc2nc(CSc3nc4[nH]ncc4c(=O)n3-c3cccc(Cl)c3)cc(=O)n12	-23.3%
CN(C)c1ccc(/C=N/O)cc1	19.2%
Nc1nnc(-c2ccccc2F)s1	12.4%
CCN(CC)CCN1C(=O)Cn2c(C)c(C)c3cccc1c32.Cl	-52.4%
COC(=O)c1ccc(NC(=S)NN2CCCCC2c2cccnc2)cc1 (centres unmarked)	-3.42%

SMILES	hERG current change (%, negative = inhibition) at 10uM
CCOc1ccc(S(=O)(=O)Nc2cc(F)ccc2F)c2cccnc12	2.18%
Cc1ccc(CCNC(=O)C2CCCN(C(=O)N(C)C)C2)cc1 (centres unmarked)	8.01%
CCOc1ccc(Nc2nc(Cc3nnc(SCC(=O)O)o3)cs2)cc1	-1.32%
O=C(NCCN1CCOCC1)C1(C(F)(F)F)C/C(=C\Cc2ccccc2)CCCO1 (centres unmarked)	7.34%
Cc1ccc(C(=O)NNC(=O)CCOc2cccc(C)c2)cc1	1.74%
CCSC1=C(C#N)C(c2ccccc2C)CC(=O)N1 (centres unmarked)	4.05%
Cc1c(NC(=O)C(C#N)=C2CCCCC2)c(=O)n(-c2ccccc2)n1C	7.58%
CCOc1ccc(NC(=O)CN(C)C(=O)CSCc2c(C)noc2C)cc1OCC	-4.75%
C=CCn1c(C)nnc1SCC(=O)c1[nH]c(C)c(C(C)=O)c1C	14.3%
Cc1ccccc1NC(=O)C1C2CCCC1C2c1ccccc1 (centres unmarked)	-4.56%
CNC(=O)CSc1nnc(-c2ccco2)n1-c1ccccc1OC	-3.69%
CC1(C)Cc2c(C#N)c(N)n(-c3ccccc3)c(=O)c2CO1	5.99%
CCOC(=O)c1nnn(CC(=O)N2N=C(c3cc(C)ccc3C)CC2c2ccc(OC)cc2)c1C(=O)OCC (centres unmarked)	-7.65%
Fc1cc2nc(-c3ccncc3)[nH]c2cc1F	-6.12%
Cc1cccc(-n2cnc(C(=O)O)c2)n1	11.1%
Oc1ccc(C23CC4CC(CC(C4)C2)C3)cc1O	18.1%
COc1c2ccoc2nc2c(OC)c(OC[C@@H](O)C(C)(C)O)ccc12	12.4%
CCOc1ccc2nc(Cl)sc2c1	19.9%
Cc1ccc(NC(=O)CCn2nc(C)cc2C)c(C)c1	2.6%
CNC(=S)N/N=C/c1ccc(C(C)C)cc1	6.93%
COc1cc(Cl)c(C)cc1NC(=O)CSCC#N	-9.08%
O=C(CSc1nc2ccccc2nc1N1CCOCC1)Nc1ccccc1F	-4.19%
